The list shows a part of the results. Single values are uncertain, as repeats are few or missing.
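Further: cells treated in 1,536-well plates, then fixed and DAPI-stained, with nuclei counted from automated high-throughput microscope images.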

The experiment relates to RVH-421. Nature of the experiment: cell count relative to DMSO control; melanoma cells; higher = more viable cells. As to conditions: library dose: standard library concentration; 72 h.
`Nc1ccn([C@@H]2O[C@H](CO)[C@@H](O)C2(F)F)c(=O)n1` [gemcitabine] + O=C(O)C(=O)Nc1sc2c(c1C(=O)O)CCNC2 [TCS401] (first compound 0.002 µM, partner dose 8.33333 µM) showed a cell count of 70.1%. Under `CC(=O)O[C@@]12CO[C@@H]1C[C@H](O)[C@@]1(C)C(=O)[C@H](O)C3=C(C)[C@@H](OC(=O)[C@H](O)[C@@H](NC(=O)OC(C)(C)C)c4ccccc4)C[C@@](O)([C@@H](OC(=O)c4ccccc4)[C@H]21)C3(C)C` [Docetaxel] + C[C@]1(c2nc3c(C(N)=O)cccc3[nH]2)CCCN1 [Veliparib] (first compound 0.0005 µM, partner dose 7 µM) stands 29.2%; under `CC(=O)c1c(C)c2cnc(Nc3ccc(N4CCNCC4)cn3)nc2n(C2CCCC2)c1=O` [palbociclib] + N#Cc1c(O)c2c(-c3ccc(-c4ccccc4O)cc3)csc2[nH]c1=O [A769662] (first compound 0.2 µM, partner dose 10 µM), 58.5%. Molecule `Nc1ccn([C@@H]2O[C@H](CO)[C@@H](O)C2(F)F)c(=O)n1` [gemcitabine] + C=CCNC1=C2C[C@@H](C)C[C@H](OC)[C@H](O)[C@@H](C)/C=C(\C)[C@H](OC(N)=O)[C@@H](OC)/C=C\C=C(/C)C(=O)NC(=CC1=O)C2=O [Tanespimycin] (first compound 0.002 µM, partner dose 0.01 µM) registered a cell count of 44.9%.

As to `CC(=O)c1c(C)c2cnc(Nc3ccc(N4CCNCC4)cn3)nc2n(C2CCCC2)c1=O` [palbociclib] + O=C(Nc1cccc(Cl)c1)Nc1ncc(CCNc2ncnc3ccsc23)s1 [SNS314] (first compound 0.2 µM, partner dose 0.004 µM), the cell count was found to be 49.5%. Under `CC(=O)O[C@@]12CO[C@@H]1C[C@H](O)[C@@]1(C)C(=O)[C@H](O)C3=C(C)[C@@H](OC(=O)[C@H](O)[C@@H](NC(=O)OC(C)(C)C)c4ccccc4)C[C@@](O)([C@@H](OC(=O)c4ccccc4)[C@H]21)C3(C)C` [Docetaxel] + c1cc(-c2cnn3cc(-c4ccc(OCCN5CCCCC5)cc4)cnc23)ccn1 [Dorsomorphin] (first compound 0.0005 µM, partner dose 2 µM) stands 60.7%; under `Nc1ncn([C@H]2C[C@H](O)[C@@H](CO)O2)c(=O)n1` [decitabine] + COC(=O)c1sccc1S(=O)(=O)Nc1ccc(Nc2ccccc2)cc1OC [GSK0660] (first compound 0.5 µM, partner dose 5 µM), 74.6%. Under `CO[C@H]1C[C@@H]2CC[C@@H](C)[C@@](O)(O2)C(=O)C(=O)N2CCCC[C@H]2C(=O)O[C@H]([C@H](C)C[C@@H]2CC[C@@H](OCCO)[C@H](OC)C2)CC(=O)[C@H](C)/C=C(\C)[C@@H](O)[C@@H](OC)C(=O)[C@H](C)C[C@H](C)/C=C/C=C/C=C/1C` [everolimus] + Clc1ccc(Nc2nnc(Cc3ccncc3)c3ccccc23)cc1 [vatalanib] (first compound 0.1 µM, partner dose 10 µM) stands 80.4%; under `Nc1ccn([C@@H]2O[C@H](CO)[C@@H](O)C2(F)F)c(=O)n1` [gemcitabine] + OCc1c[nH]c2ccccc12 [Indole-3-carbinol] (first compound 0.002 µM, partner dose 4 µM), 51.2%.

`Nc1ncn([C@H]2C[C@H](O)[C@@H](CO)O2)c(=O)n1` [decitabine] + O=C(Nc1ccccc1)c1cc([N+](=O)[O-])ccc1Cl [GW9662] (first compound 0.5 µM, partner dose 10 µM) yielded a cell count of 52.5%. Next, `Nc1ccn([C@@H]2O[C@H](CO)[C@@H](O)C2(F)F)c(=O)n1` [gemcitabine] + NC(=O)Nc1cc(-c2cccc(F)c2)sc1C(=O)N[C@H]1CCCNC1 [AZD7762] (first compound 0.002 µM, partner dose 0.1 µM): 55.7%. Next, `Nc1nc(F)nc2c1ncn2[C@@H]1O[C@H](CO)[C@@H](O)[C@@H]1O` [fludarabine] + O=c1cc(-c2cccc3c2Sc2ccccc2S3)oc(N2CCOCC2)c1 [KU55933] (first compound 1 µM, partner dose 5 µM): 98.7%; `CC(=O)O[C@@]12CO[C@@H]1C[C@H](O)[C@@]1(C)C(=O)[C@H](O)C3=C(C)[C@@H](OC(=O)[C@H](O)[C@@H](NC(=O)OC(C)(C)C)c4ccccc4)C[C@@](O)([C@@H](OC(=O)c4ccccc4)[C@H]21)C3(C)C` [Docetaxel] + CO[C@H]1C[C@@H]2CC[C@@H](C)[C@@](O)(O2)C(=O)C(=O)N2CCCC[C@H]2C(=O)O[C@H]([C@H](C)C[C@@H]2CC[C@@H](OCCO)[C@H](OC)C2)CC(=O)[C@H](C)/C=C(\C)[C@@H](O)[C@@H](OC)C(=O)[C@H](C)C[C@H](C)/C=C/C=C/C=C/1C [everolimus] (first compound 0.0005 µM, partner dose 0.1 µM): 44.6%; `CC(=O)O[C@@]12CO[C@@H]1C[C@H](O)[C@@]1(C)C(=O)[C@H](O)C3=C(C)[C@@H](OC(=O)[C@H](O)[C@@H](NC(=O)OC(C)(C)C)c4ccccc4)C[C@@](O)([C@@H](OC(=O)c4ccccc4)[C@H]21)C3(C)C` [Docetaxel] + O=C(CCCCCCC(=O)Nc1ccccc1)NO [vorinostat] (first compound 0.0005 µM, partner dose 0.4 µM): 56.2%. Next, `Nc1ccn([C@@H]2O[C@H](CO)[C@@H](O)C2(F)F)c(=O)n1` [gemcitabine] + c1cc(-c2cnn3cc(-c4ccc(OCCN5CCCCC5)cc4)cnc23)ccn1 [Dorsomorphin] (first compound 0.002 µM, partner dose 2 µM): 85.1%.

For the origin of these results see the supplement of paper PMC4604168 (melanoma cell lines).
